# Out of some 420,000 compounds screened, about 64,000 (15%) were called active. Inconclusive results, whose numbers are uncertain, are shown with a selection of clear calls. The call rests on the fitted dose curve; in most records, active means well fitted inhibition curve with a large enough effect; inconclusive means small, poorly fitted or top-dose-only effect; inactive means flat fitted curve, though single readings scatter. Potencies of inconclusive entries are left out as doubtful fits.
# Experiment: qHTS for Inhibitors of human tyrosyl-DNA phosphodiesterase 1 (TDP1): qHTS in cells in absence of CPT; further: nearly all actives have a fitted effect of over 55% in size
# Settings: DT40 Tdp1-/- hTDP1 cells, no CPT, ATP luminescence, 48 h; activity change, negative = growth inhibition: at 46.2 µM (top of the series)
# How it was run: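 Camptothecin absent (DMSO only). Human TDP1-complemented DT40 knockout cells, 400 cells/well, 37 °C for minimum 48 hr; ATP measured via CellTiter-Glo, 30 min dark incubation, luminescence.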
# On the % scale 0 is the no-effect control and ±100 the full control effect; potency means the concentration at half of the fitted maximal effect; tags describe the fitted curve by direction and shape.
Structure (SMILES),Potency,"activity change, negative = growth inhibition"
CSc1ccccc1NC(=O)CN(C)C(C)C(=O)NC(=O)NC1CCCCC1 (stereo not drawn),"inconclusive [inhibitor, partial curve, poor fit]",–
Cn1c(=O)c2c(SCC(=O)Nc3ccccc3F)nc(C3CC3)nc2n(C)c1=O,"inconclusive [inhibitor, single point]",–
Cc1cc(C)cc(NC(=O)CCn2c(=O)c3cccn3c3ccccc32)c1,active: 8.2 µM,–
O=C(Nc1ccccc1Cl)c1cc(C2CCCN(C(=O)c3cccc(O)c3)C2)on1 (stereo not drawn),inactive,–
CC(C(=O)NCCCn1ccnc1)(c1ccccc1)c1ccccc1,active: 18.4 µM,–
COc1ccc(N2CC(NC(=O)C(=O)c3c(C)[nH]c4ccccc34)CC2=O)cc1 (stereo not drawn),inactive,–
COc1cc(OC)c(NC(=O)Cn2cnc3sc(C)c(S(=O)(=O)N4CCC(C)CC4)c3c2=O)cc1Cl,"inconclusive [inhibitor, single point]",–
CCCCn1c2c(c(=N)c3c1CCC3)CCC2,active: 4.61 µM,–
CCn1c(SC(C)C)nnc1-c1cc(-c2ccccc2)sc1N,active: 16.4 µM,–
C/C=C/c1cccc(-c2nc(C(=O)NC3Cc4ccccc4C3)cc3c2[C@@H](CCO)N(C(C)=O)C3)c1,"inconclusive [inhibitor, single point]",–
COc1cccc(C2CC(c3c(-c4ccccc4)c4cc(Cl)ccc4[nH]c3=O)=NN2S(C)(=O)=O)c1OC (stereo not drawn),active: 16.4 µM,–
CN1C(=O)C(O)(CC(=O)/C=C/c2ccco2)c2ccccc21 (stereo not drawn),inactive,–
O=C(CSc1nc(=O)n(Cc2ccco2)c2c1CCC2)NCc1ccc(Cl)cc1,inactive,–
O=C1CCCC2=C1C(c1ccc(Cl)cc1)n1c(s/c(=C\c3ccc4ccncc4c3)c1=O)=N2 (stereo not drawn),active: 20.6 µM,–
CC1(C)Cc2nc3sc4c(SCC(=O)NCc5ccco5)ncnc4c3cc2CO1,active: 2.31 µM,–
Cc1ccc(NC(=O)CCn2c(=O)c3cccn3c3ccccc32)cc1Cl,active: 23.1 µM,–
CCOC(=O)c1c(-c2ccc(C)s2)csc1NC(=O)c1cccs1,inactive,–
O=C(NC1CCCCC1)c1cc(Cl)nc2ccccc12,inactive,–
O=C(Nc1ccccc1)c1ccc(Nc2c([N+](=O)[O-])cc([N+](=O)[O-])c3ccccc23)cc1,active: 10.3 µM,–
O=C(Nc1ccc([N+](=O)[O-])cc1)C1CC1(c1ccccc1)c1ccccc1 (stereo not drawn),"inconclusive [inhibitor, partial curve, poor fit]",–
CC(CCN1CCN(c2ccc(F)cc2)CC1)c1ccccc1 (stereo not drawn),"inconclusive [inhibitor, single point]",–
Cc1ccc(C(=O)N2CCN(Cc3cc(=O)n4nc(-c5ccccc5)sc4n3)CC2)cc1,inactive,–
C=CCN(CC=C)C(=O)COC(=O)c1n[nH]c2ccccc12,inactive,–
CN(C)C(=O)c1ccc(-c2cncnc2NCc2cccnc2)cc1,inactive,–
Cc1cc(NC(=O)Nc2nnc(N3CCCCC3)s2)ccc1Br,"inconclusive [inhibitor, single point]",–

Structure (SMILES),Potency,"activity change, negative = growth inhibition"
COc1cc(/C=C/C(=O)OCC(=O)NC(=O)NC(C)(C)C)ccc1OCC#N,"inconclusive [inhibitor, single point]",–
Cc1noc(NS(=O)(=O)c2ccc(N3CC(O)=C(c4ccccc4)C3=N)cc2)c1C,inactive,–
CSc1ccccc1NC(=O)CSCc1ccc(Br)cc1,inactive,–
O=C(NCCN1C(=O)S/C(=C\c2ccccc2F)C1=O)C1CC(=O)N(Cc2ccccc2)C1 (stereo not drawn),"inconclusive [inhibitor, single point]",–
N#CCCn1cc(C(=O)CN2C(=O)NC3(CCCCCC3)C2=O)c2ccccc21,inactive,–
S=C(NCCCN1CCOCC1)NN=C1c2ccccc2-c2ccccc21,active: 5.8 µM,–
Cc1cc(C)c2nc(N(Cc3cccnc3)C(=O)Cc3ccccc3)sc2c1,"inconclusive [inhibitor, single point]",–
c1cncc(-c2nc(NCc3ccc4c(c3)OCO4)c3ccccc3n2)c1,active: 20.6 µM,–
COc1cccc(SCC2(O)CCN(C(=O)c3ccc(Cl)cc3)CC2)c1,"inconclusive [inhibitor, single point]",–
O=[N+]([O-])c1ccc(C(O)C(CO)NC(=S)Nc2ccccc2)cc1 (stereo not drawn),"inconclusive [inhibitor, single point]",–
Cc1ccccc1OCc1nc2ccccc2c(=O)n1/N=C/c1cn[nH]c1-c1ccc(Br)cc1,"inconclusive [inhibitor, single point]",–
Cc1cc(C)cc(N(C(C)C(=O)N2CCCC2)S(C)(=O)=O)c1 (stereo not drawn),inactive,–
Cc1ccc(C)c(OCC(=O)Nc2ccccc2N2CCCC2)c1,"inconclusive [inhibitor, single point]",–
COc1ccc(NC(=O)c2cc(-c3ccco3)nc3ccccc23)cc1,"inconclusive [inhibitor, partial curve]",–
CC(C)OCCCNC(=S)Nc1ccc(S(N)(=O)=O)cc1,"inconclusive [inhibitor, single point]",–
Cc1cc(NC(=O)CSCC(=O)Nc2ccccc2Oc2ccccc2)no1,"inconclusive [inhibitor, single point]",–
COc1ccc(C(=O)c2coc3c2C(=O)C(=O)c2ccccc2-3)cc1,active: 4.61 µM,–
COc1ccc(OCC(=O)N/N=C/c2cccc3cccnc23)cc1,"inconclusive [inhibitor, single point]",–
CN(C)c1ccc(N/C=C/C(=O)c2ccc(F)cc2)cc1,"inconclusive [inhibitor, partial curve, poor fit]",–
CCC(Sc1nc2ccccc2c(=O)[nH]1)C(=O)Nc1ccc(C(C)=O)cc1 (stereo not drawn),"inconclusive [inhibitor, single point]",–
CC(C)CCOc1ccc(C(=O)NN2C(=O)NC3(CCCCC3)C2=O)cc1,–,inconclusive: -30.2% [inhibitor]
Cn1cc(C(CO)Cc2ccccc2)c2ccccc21 (stereo not drawn),"inconclusive [inhibitor, single point]",–
Cc1nc(N2CCN(c3ccccc3)CC2)nc2c1C(=O)CC(C)C2 (stereo not drawn),"inconclusive [inhibitor, partial curve]",–
Cc1ccc(NC(=O)C2(C)CCN2Cc2csc3ccccc23)cc1 (stereo not drawn),"inconclusive [inhibitor, single point]",–
CC(C)(Oc1ccc(Cl)cc1)C(=O)NCc1ccco1,"inconclusive [inhibitor, partial curve]",–

Structure (SMILES),Potency,"activity change, negative = growth inhibition"
O=C(CSc1nc2ccccc2c(=O)n1-c1ccc(F)cc1F)Nc1ccc2c(c1)CCC2,"inconclusive [inhibitor, single point]",–
CCOC(=O)c1cc(-c2ccc(C#N)cc2)nc2c1c(C)nn2CCC#N,"inconclusive [inhibitor, single point]",–
COc1cc(NC(=O)c2ccc3c(Cl)c4c(nc3c2)CCC4)cc(OC)c1OC,inactive,–
Cc1ccc(-c2nnc(-c3ccc4ccccc4c3)o2)cc1,"inconclusive [inhibitor, partial curve]",–
Oc1[nH]c2ccc(Br)cc2c1N=Nc1ccc(C(F)(F)F)cn1,"inconclusive [inhibitor, single point]",–
COc1ccc(N=c2nc(-c3ccccc3)n(-c3ccc(C)cc3)s2)cc1,active: 3.16 µM,–
CC(=O)c1cccc(-n2c(=O)c3c4c(sc3n(CC(=O)Nc3ccccc3F)c2=O)CN(C(C)=O)CC4)c1,inactive,–
COc1ccc(Sc2ccc(-c3nc4cnccn4c3NC3CCCCC3)cc2OC)cc1,active: 13 µM,–
CCOc1cccc(CN2CCN(CCCc3ccccc3)C(CCO)C2)c1O (stereo not drawn),inactive,–
COc1ccc(/C=N/Nc2nonc2N)cc1,inactive,–
CCOc1ccc(NC(=S)NNc2ccnc3cc(Cl)ccc23)cc1,active: 13 µM,–
O=C(COc1ccc([N+](=O)[O-])cc1)N1CCC(c2nc3ccccc3s2)CC1,active: 9.2 µM,–
COc1cc(C(=O)N2CCCCC2c2cc(C(=O)NCc3cccnc3)no2)cc(OC)c1C (stereo not drawn),"inconclusive [inhibitor, partial curve]",–
COc1ccc(OC)c2[nH]c(=O)c(CCNC(=O)COc3ccccc3)cc12,"inconclusive [inhibitor, single point]",–
Cc1ccc2ncccc2c1NC(=S)NC(=O)c1ccccc1,"inconclusive [inhibitor, single point]",–
NC1=NC(c2ccc(F)cc2)n2c(nc3ccccc32)N1 (stereo not drawn),inactive,–
O=C(CSc1nc2nn(-c3ccccc3)c(=O)c-2c2n1CCCCC2)Nc1ccccc1[N+](=O)[O-],"inconclusive [inhibitor, partial curve, poor fit]",–
Cc1ccc(C(=O)Nc2ccc(S(=O)(=O)N3CCc4ccccc43)cc2)o1,"inconclusive [inhibitor, single point]",–
O=C(Nc1c(C(=O)O)[nH]c2ccc(F)cc12)c1cccc(C(F)(F)F)c1,inactive,–
Cc1ccc(C)c(NC(=S)N(C)CCO)c1,inactive,–
COc1ccc(OC)c(S(=O)(=O)N(C)CC(=O)O)c1,–,inconclusive: -30.4% [inhibitor]
O=C(NCC1CCCO1)c1cc(-c2ccc(Cl)cc2Cl)on1 (stereo not drawn),"inconclusive [inhibitor, partial curve, poor fit]",–
O=C(Cn1cnc2c(oc3nc4c(cc32)CCCC4)c1=O)Nc1ccccc1,"inconclusive [inhibitor, single point]",–
